# According to publication PMC4336329 (PLoS ONE, 2015):
# About 2,200 (0.71%) of roughly 310,000 compounds showed an effect of 50% or more. The effect is printed as a negative number. The list shows a part of the results.
# Target: human ether-à-go-go-related gene (hERG) potassium channel (human, UniProt Q12809)
# Assay: primary screen, population patch clamp on CHO cells stably expressing hERG
# Sequence of human ether-à-go-go-related gene (hERG) potassium channel (Q12809 whole entry, looked up): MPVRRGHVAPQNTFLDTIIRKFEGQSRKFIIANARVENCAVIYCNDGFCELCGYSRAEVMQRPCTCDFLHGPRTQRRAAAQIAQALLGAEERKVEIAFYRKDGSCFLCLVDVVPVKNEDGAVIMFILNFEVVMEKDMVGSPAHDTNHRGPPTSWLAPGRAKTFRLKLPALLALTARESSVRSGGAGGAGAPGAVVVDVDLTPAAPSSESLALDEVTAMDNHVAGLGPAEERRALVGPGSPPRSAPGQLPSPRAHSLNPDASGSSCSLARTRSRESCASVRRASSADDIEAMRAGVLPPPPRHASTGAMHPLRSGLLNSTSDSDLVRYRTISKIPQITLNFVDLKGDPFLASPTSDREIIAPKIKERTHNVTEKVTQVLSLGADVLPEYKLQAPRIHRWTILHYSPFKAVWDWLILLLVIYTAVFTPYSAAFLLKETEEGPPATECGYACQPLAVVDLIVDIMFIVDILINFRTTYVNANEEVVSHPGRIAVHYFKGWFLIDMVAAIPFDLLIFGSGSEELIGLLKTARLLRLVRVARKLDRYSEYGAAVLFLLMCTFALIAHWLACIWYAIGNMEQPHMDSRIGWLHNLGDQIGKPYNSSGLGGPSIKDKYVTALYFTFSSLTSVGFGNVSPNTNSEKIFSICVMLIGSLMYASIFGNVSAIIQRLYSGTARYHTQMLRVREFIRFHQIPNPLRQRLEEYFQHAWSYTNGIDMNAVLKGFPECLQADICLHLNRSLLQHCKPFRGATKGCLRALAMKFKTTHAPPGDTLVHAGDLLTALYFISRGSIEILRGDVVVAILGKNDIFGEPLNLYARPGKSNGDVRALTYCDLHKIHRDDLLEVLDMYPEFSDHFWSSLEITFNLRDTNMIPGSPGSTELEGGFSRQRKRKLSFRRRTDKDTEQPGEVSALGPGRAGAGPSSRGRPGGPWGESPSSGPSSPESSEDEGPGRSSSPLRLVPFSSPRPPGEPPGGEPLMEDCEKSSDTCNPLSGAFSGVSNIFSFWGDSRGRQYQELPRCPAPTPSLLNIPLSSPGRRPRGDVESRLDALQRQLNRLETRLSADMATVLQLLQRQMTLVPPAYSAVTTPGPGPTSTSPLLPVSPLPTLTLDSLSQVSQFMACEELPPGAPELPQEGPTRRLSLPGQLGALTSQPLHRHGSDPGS
row,SMILES,"hERG current change (%, negative = inhibition) at 1uM [%]"
1,CCSc1ccc2nnc(-c3cccs3)n2n1,8.9
2,CC(C)(C)n1nnnc1CN(Cc1ccc(F)cc1)Cc1ccco1,6.94
3,Cc1ccc(S(=O)(=O)N2CCCCC2)cc1NC(=O)CSc1ncn[nH]1,13.3
4,COc1ccc(-c2nn(-c3ccccc3)cc2C(=O)Nc2ccc(C(=O)O)cc2)cc1,13.8
5,Cc1nc(NC(=O)/C=C/c2ccccc2)sc1C(=O)Nc1ccc(Cl)cc1,4.18
6,COc1ccc(CCNC(=O)c2ccccc2N(C)S(=O)(=O)c2ccccc2)cc1,1.53
7,O=C(O)c1cccnc1NC1CCCC1,5.11
8,Cc1ccc(OCCOc2ccc(Cl)cc2Cl)c([N+](=O)[O-])n1,9.51
9,O=C(O)c1ccc(-n2nncc2-c2ccccc2)cc1,10.2
10,COc1ccc(NC(=O)c2cnn(-c3ccccc3)c2C)c(OC)c1,15.8
11,Cc1[nH][nH]c(=O)c1C(c1ccc(N(C)C)c(Br)c1)c1c(C)[nH][nH]c1=O,17.5
12,COc1ccc(C(=O)CC(=O)C(=O)Nc2ccccc2OC)cc1,2.15
13,CCc1cccc(N(CC(=O)NCc2ccc(F)cc2)C(=O)c2csnn2)c1,3.81
14,COc1cccc(-c2n[nH]c(=S)n2Cc2ccco2)c1,12.1
15,COc1ccc(CN2CC(C(=O)NCCCOC(C)C)CC2=O)cc1 (stereo not shown),9.25
16,CCOC(=O)C1(CCc2ccccc2)CCN(Cc2ccc(O)cc2)CC1,-86.3
17,Cn1nc(C(=O)Nc2ccc(S(=O)(=O)N3CCCC3)cc2)ccc1=O,3.55
18,CC(OC(=O)CCC(=O)c1cccs1)C(=O)Nc1ccccc1[N+](=O)[O-] (stereo not shown),15.8
19,CC(C)NC(=O)c1cc2c(s1)CCCC2,4.21
20,CCN(CC)C(=O)Nc1ccc(C(=O)OC)cc1,5.01
21,Cc1ccccc1NC(=O)c1cccc(N2C(=O)C3CCC(C)CC3C2=O)c1 (stereo not shown),22.2
22,COc1ccc(OC)c(CCNC(=O)Cn2nc(C)c3c(C)n(-c4ccc(C)cc4)nc3c2=O)c1,9.8
23,COc1ccc(Br)cc1CN1CCN(C(=O)c2ccco2)CC1.O=C(O)C(=O)O,0.835
24,O=C(NCc1cccnc1)c1ccc(NC(=O)c2cccc([N+](=O)[O-])c2)cc1,0.436
25,O=C(NCc1ccco1)C1CCCN(S(=O)(=O)c2cc(Cl)ccc2Cl)C1 (stereo not shown),2.52
